Experimental findings from the antibiotic and cytotoxicity screens of Wong et al. (2023) are described below.

Structures are written as SMILES. The list shows a part of the results.

For assay [1], the system named is HSkMC (human skeletal muscle cells). Kind of assay: cytotoxicity call (relative viability < 0.9). The note with it: 10 µM.
Assay [2] concerns HepG2. Put plainly: cytotoxicity call (relative viability < 0.9). The note with it: 10 µM.
Assay [3] deals with S. aureus RN4220. Kind of assay: growth inhibition call (relative growth <= 0.2). The settings on record: 50 µM.

`NC(=S)N1CCCC1`: the cytotoxicity call in assay [1] and in assay [2] was “inactive” each time. In addition, the growth inhibition call in assay [3] was “inactive”.
With `Cc1ccc(C(=O)Nc2ccc(Oc3cc4cnn(C)c4cc3-c3cn[nH]c3)c(F)c2)c(=O)n1-c1ccc(F)cc1`, the cytotoxicity call in assay [1] and in assay [2] was “active” in each case. Further, in assay [3], the growth inhibition call is “inactive”.
Take `O=C(Cc1ccncc1)Nc1ccc2c(c1)[C@@H]1C[C@@H](CC(=O)N3CCc4ccccc4C3)O[C@H](CO)[C@@H]1O2`: the cytotoxicity call in assay [1] and in assay [2] was “inactive” in each case. The growth inhibition call in assay [3] is “inactive”.
As for `C[C@@H]1CN([C@@H](C)CO)S(=O)(=O)c2ccc(C#CC3(O)CCCC3)cc2O[C@@H]1CN(C)C(=O)Nc1ccccc1`, the cytotoxicity call in assay [1] and in assay [2] was “inactive” in each case. Also, in assay [3], the growth inhibition call is “inactive”.
As to `C[C@@H]1CN([C@H](C)CO)C(=O)c2cc(NC(=O)Nc3cccc4ccccc34)ccc2O[C@@H](C)CCCCO[C@H]1CN(C)Cc1ccc2c(c1)OCO2`, the cytotoxicity call in assay [1] is “inactive”. Further, the cytotoxicity call in assay [2] is “active”. For the same compound, the growth inhibition call in assay [3] was “inactive”.
